Some of the results follow.
Columns and labels:
HSkMC = human skeletal muscle cells; assay: cytotoxicity call (relative viability < 0.9); conditions: 10 µM
HepG2 = assay: cytotoxicity call (relative viability < 0.9); conditions: 10 µM
S. aureus RN4220 = assay: growth inhibition call (relative growth <= 0.2); conditions: 50 µM

C[C@@H]1CCCCO[C@H](CN(C)C(=O)c2ccccc2)[C@@H](C)CN([C@@H](C)CO)C(=O)c2cc(NC(=O)C3CCCCC3)ccc2O1
inactive: cytotoxicity call (HSkMC) | cytotoxicity call (HepG2) | growth inhibition call (S. aureus RN4220)

CCNC(=O)C[C@H]1CC[C@@H]2[C@H](COc3ccc(NS(=O)(=O)c4ccccc4C)cc3C(=O)N2C)O1
inactive: cytotoxicity call (HSkMC) | cytotoxicity call (HepG2) | growth inhibition call (S. aureus RN4220)

CCNC(=S)N1CCOCC1
inactive: cytotoxicity call (HSkMC) | cytotoxicity call (HepG2) | growth inhibition call (S. aureus RN4220)

O=C(C[C@H]1CC[C@@H](NC(=O)CN2CCOCC2)[C@H](CO)O1)NCCc1ccncc1
inactive: cytotoxicity call (HSkMC) | cytotoxicity call (HepG2) | growth inhibition call (S. aureus RN4220)

C[C@@H]1CCCCO[C@H](CN(C)C(=O)NC2CCCCC2)[C@H](C)CN([C@H](C)CO)C(=O)c2cc(NS(=O)(=O)c3cccs3)ccc2O1
inactive: cytotoxicity call (HSkMC) | cytotoxicity call (HepG2) | growth inhibition call (S. aureus RN4220)

CO[C@@H]1CN(C)C(=O)c2ccc(NC(=O)C3CC3)cc2OC[C@H](C)N(C(=O)CN2CCOCC2)C[C@H]1C
inactive: cytotoxicity call (HSkMC) | cytotoxicity call (HepG2) | growth inhibition call (S. aureus RN4220)

CCC[C@@H](O)C#Cc1cnc2c(c1)C(=O)N([C@H](C)CO)C[C@H](C)[C@H](CN(C)S(=O)(=O)c1cccc(F)c1)O2
inactive: cytotoxicity call (HSkMC) | cytotoxicity call (HepG2) | growth inhibition call (S. aureus RN4220)

C[C@H](CO)N1C[C@H](C)[C@@H](CN(C)Cc2ccc3c(c2)OCO3)OCCCC[C@H](C)Oc2ccc(NC(=O)Nc3ccccc3)cc2C1=O
inactive: cytotoxicity call (HSkMC) | cytotoxicity call (HepG2) | growth inhibition call (S. aureus RN4220)

CC(C)NNC(=O)c1ccncc1
inactive: cytotoxicity call (HSkMC) | cytotoxicity call (HepG2) | growth inhibition call (S. aureus RN4220)

COc1cccc(NC(=O)N[C@@H]2CC[C@H](CC(=O)N3CCN(C)CC3)O[C@@H]2CO)c1
inactive: cytotoxicity call (HSkMC) | cytotoxicity call (HepG2) | growth inhibition call (S. aureus RN4220)

— the antibiotic and cytotoxicity screens of Wong et al. (2023)
